Some of the results follow. Each Rep nickase domain was tested in vitro on the same pool of single strands (3 µM enzyme, 1 h, 37 °C); shown is the middle of each 90-letter strand. The score is log2 (uncut reads / reads without enzyme); strong cutting gives strongly negative numbers. There is no active / inactive call. Shares of all reads are compared, so uncut sequences can rise above 0 when many others are cut.
system: T1, Rep nickase domain of tomato golden mosaic virus; assay: uncleaved DNA left, log2 of reads against the no-enzyme library (log2 ratio); higher = less cleavage (more negative = more Rep cleavage of the k-mer); sequences stand for … in CTCGTCCG…ACCGGAGA
T1 sequence (residues 1-124 of Rep, tag left off): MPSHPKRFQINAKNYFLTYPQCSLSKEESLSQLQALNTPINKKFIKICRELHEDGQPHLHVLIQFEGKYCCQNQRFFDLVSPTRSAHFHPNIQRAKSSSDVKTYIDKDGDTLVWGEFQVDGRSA
Experimental: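 A pool of 90-nt single-stranded DNAs with seven random bases just before the constant AC of the nick site (name = the seven bases) was cut by 3 µM recombinant His6-SUMO-tagged Rep nickase domain (300 nM DNA, 50 mM HEPES pH 8.0, 50 mM NaCl, 1 mM MnCl2, 1 h, 37 °C, three replicates). Uncut DNA was amplified and sequenced.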

For ACGGTCG, which “uncleaved DNA left (log2)” value is on record?
Its value is -0.0832.

For ACTGTTT, which “uncleaved DNA left (log2)” value is on record?
The value was -0.00773.

For TGGAATA, which “uncleaved DNA left (log2)” value is on record?
Its value is 0.0351.

For CGATGTA, which “uncleaved DNA left (log2)” value is on record?
The value was -0.149.

TTAGCGC was tested. Which “uncleaved DNA left (log2)” value did it give?
The value was -0.0813.

For TTTAATG, which “uncleaved DNA left (log2)” value is on record?
The value was -0.0386.

With ATCAAAG as the sequence, how does the “uncleaved DNA left (log2)” value read?
The value was 0.0242.

CGGCTTC was tested. Which “uncleaved DNA left (log2)” value did it give?
The value was -0.216.

With GTGGAAA as the sequence, how does the “uncleaved DNA left (log2)” value read?
Its value is -0.0384.

Which “uncleaved DNA left (log2)” value does the source give for GTCCGCC here?
Its value is -0.0517.

Which “uncleaved DNA left (log2)” value does the source give for CGCCCAG here?
The value was -0.0976.

TAACCGG was tested. Which “uncleaved DNA left (log2)” value did it give?
The value was 0.138.

For TGCCCAG, which “uncleaved DNA left (log2)” value is on record?
The value was 0.00619.

How did the “uncleaved DNA left (log2)” value turn out when TGAACGG was run?
Its value is 0.188.

CTAGGGT was tested. Which “uncleaved DNA left (log2)” value did it give?
The value was 0.0611.

Which “uncleaved DNA left (log2)” value does the source give for GCGCTGC here?
Its value is -0.054.

With AACGGCG as the sequence, how does the “uncleaved DNA left (log2)” value read?
Its value is 0.0994.

How did the “uncleaved DNA left (log2)” value turn out when CAAAATT was run?
Its value is -3.09.

ACAAAAA was tested. Which “uncleaved DNA left (log2)” value did it give?
Its value is 0.00789.

How did the “uncleaved DNA left (log2)” value turn out when GCATCCA was run?
Its value is -0.00517.

How did the “uncleaved DNA left (log2)” value turn out when CGTGCGG was run?
Its value is 0.167.

Which “uncleaved DNA left (log2)” value does the source give for TGCCCGG here?
The value was 0.0741.

Which “uncleaved DNA left (log2)” value does the source give for CACTGTA here?
The value was 0.177.

ACTGAGA was tested. Which “uncleaved DNA left (log2)” value did it give?
The value was 0.125.

Which “uncleaved DNA left (log2)” value does the source give for TTGGTCA here?
The value was 0.0449.

Which “uncleaved DNA left (log2)” value does the source give for GCAAACC here?
Its value is -0.0137.

How did the “uncleaved DNA left (log2)” value turn out when TCATGCC was run?
The value was -0.0495.

How did the “uncleaved DNA left (log2)” value turn out when ACGGACT was run?
The value was 0.00809.

How did the “uncleaved DNA left (log2)” value turn out when TAGAAAT was run?
The value was 0.17.

With CCCCCTG as the sequence, how does the “uncleaved DNA left (log2)” value read?
Its value is -0.107.

ACTTTTC was tested. Which “uncleaved DNA left (log2)” value did it give?
The value was -0.00916.

How did the “uncleaved DNA left (log2)” value turn out when TGTTCCA was run?
Its value is -0.0857.

Which “uncleaved DNA left (log2)” value does the source give for AATCGTA here?
Its value is -0.0371.

CACACCA was tested. Which “uncleaved DNA left (log2)” value did it give?
Its value is -0.2.

For CAATTGG, which “uncleaved DNA left (log2)” value is on record?
Its value is 0.00965.

Which “uncleaved DNA left (log2)” value does the source give for TCGACCG here?
Its value is -0.0502.

AAAAATA was tested. Which “uncleaved DNA left (log2)” value did it give?
Its value is 0.131.

With GTTCTCG as the sequence, how does the “uncleaved DNA left (log2)” value read?
The value was 0.125.

How did the “uncleaved DNA left (log2)” value turn out when ACAATGA was run?
Its value is 0.148.

With AGTGGTT as the sequence, how does the “uncleaved DNA left (log2)” value read?
Its value is 0.181.
